According to the supplement of paper PMC12217912:
Some of the results follow. The full chains were built here from the parent and the listed change. Values near 0.05 are background.

B1: TEV protease; numbered along this chain (parent)
chain: MGESLFKGPRDYNPISSSICHLTNESDGHTTSLYGIGFGPFIITNKHLFRRNNGTLVVQSLHGVFKVKDTTTLQQHLVDGRDMIIIRMPKDFPPFPQKLKFREPQREERICLVTTNFQTKSMSSMVSDTSCTFPSGDGIFWKHWIQTKDGQCGSPLVSTRDGFIVGIHSASNFTNTNNYFTSVPKNFMELLTNQEAQQWVSGWRLNADSVLWGGHKVFMVKPEEPFQPVKEATQL

Variants of: B1
Test: raw area under fraction-flipped curve 0-4 h after induction (AUC4h, not background-subtracted), DNA-recorder readout of cleavage of the substrate (dimensionless); higher = more cleavage of the substrate by the protease variant
Details: temperature: 34 °C; time window: 0-4 h after rhamnose induction
Description: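 In vivo DNA recorder in E. coli TOP10(DE3) ΔrhaA at 34 °C. Each TEVp single-site mutant (parent TEVp 0) is paired with a single-site variant of the 7-mer TEVs (canonical ENLYFQ|S). The substrate sits between flexible linkers in a Bxb1-sfGFP-TEVs-SsrA fusion, so cleavage stabilises Bxb1 and speeds flipping of a recombination array, read by NGS. The value is the raw area under the fraction-flipped curve over 0-4 h after rhamnose induction (AUC4h), with ≥20 reads per time point. It is not background-subtracted; inactive controls average about 0.047.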
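Note: Bxb1 expression induced with 0.2% (w/v) L-rhamnose at OD600 near 0.5, cultures sampled hourly, flipped fraction per protease–substrate barcode pair counted by paired-end Illumina sequencing.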

| Variant | area with substrate ENLCFQS | area with substrate ENLDFQS | area with substrate ENLFFQS | area with substrate ENLHFQS | area with substrate ENLIFQS | area with substrate ENLKFQS | area with substrate ENLNFQS | area with substrate ENLPFQS | area with substrate ENLQFQS | area with substrate ENLRFQS | area with substrate ENLVFQS | area with substrate ENLWFQS | area with substrate ENLEFQS | area with substrate ENLLFQS | area with substrate ENLSFQS | area with substrate ENLGFQS | area with substrate ENLMFQS |
| --- | --- | --- | --- | --- | --- | --- | --- | --- | --- | --- | --- | --- | --- | --- | --- | --- | --- |
| MGESLFKGPRDYNPISSSICHLTNESDGHTTSLYGIGFGPFIITNKHLFRRNNGTMVVQSLHGVFKVKDTTTLQQHLVDGRDMIIIRMPKDFPPFPQKLKFREPQREERICLVTTNFQTKSMSSMVSDTSCTFPSGDGIFWKHWIQTKDGQCGSPLVSTRDGFIVGIHSASNFTNTNNYFTSVPKNFMELLTNQEAQQWVSGWRLNADSVLWGGHKVFMVKPEEPFQPVKEATQL [L56M] | 0.0642 | 0.039 | 0.0951 | 0.0821 | 0.11 | 0.0776 | 0.0634 | 0.0484 | 0.106 | 0.0547 | 0.0692 | 0.0854 |  |  |  |  |  |
| MGESLFKGPRDYNPISSSICHLTNESDGHTTSLYGIGFGPFIITNKHLFRRNNGTLVVQSLHGVFKVKDTTTLQQHLVDGRDMIIIRMPKDFPPFPQKLKFREPQREERICLVTTNFQTKSMSSMVSDTSCTFPSGDGIFWKHWIQTKDGQCGSPLVSTRDGFIVGIHSASNFTNTNNYFTSVPKNFMELLTNQEAQQWVSGWRLNADSVLWGGHSVFMVKPEEPFQPVKEATQL [K216S] | 0.0549 | 0.0622 | 0.0714 |  |  |  | 0.0638 | 0.0446 |  |  |  |  | 0.0572 | 0.0615 |  |  |  |
| MGESLFKGPRDYNPISSSICHLTNESDGHTTSLYGIGFGPFIITNKHLFRRNNGTLVVQSLHGVFKVKDTTTLQQHLVDGRDMIIIRMPKDFPPFPQKLKFREPQREERICLVTTNFQTKSMSSMVSDTSCTFPSGDGIFWKHWIQTKDGQCGSPLVSTRDGFIVGIHSASNFTNDNNYFTSVPKNFMELLTNQEAQQWVSGWRLNADSVLWGGHKVFMVKPEEPFQPVKEATQL [T176D] | 0.0681 | 0.0777 |  | 0.0536 |  | 0.061 | 0.0733 |  | 0.0693 | 0.0567 | 0.0848 |  |  |  | 0.0598 |  |  |
| MGESLFKGPRDYNPISSSICHLTNESDGHTTSLYGIGFGHFIITNKHLFRRNNGTLVVQSLHGVFKVKDTTTLQQHLVDGRDMIIIRMPKDFPPFPQKLKFREPQREERICLVTTNFQTKSMSSMVSDTSCTFPSGDGIFWKHWIQTKDGQCGSPLVSTRDGFIVGIHSASNFTNTNNYFTSVPKNFMELLTNQEAQQWVSGWRLNADSVLWGGHKVFMVKPEEPFQPVKEATQL [P40H] | 0.0739 | 0.067 | 0.0825 | 0.0614 | 0.0901 | 0.0736 | 0.0632 | 0.0619 |  | 0.0887 |  | 0.0589 | 0.0643 | 0.0576 | 0.0614 | 0.08 | 0.0817 |
| MGESLFKGPRDYNPISSSICHLTNESDGHTTSLYGIGFGPFIITNKHLFRRNNGTLVVQSLHGVFKVKDTTTLQQHLVDGRDMIIIRMPKDFPPFPQKLKFREPQREERICIVTTNFQTKSMSSMVSDTSCTFPSGDGIFWKHWIQTKDGQCGSPLVSTRDGFIVGIHSASNFTNTNNYFTSVPKNFMELLTNQEAQQWVSGWRLNADSVLWGGHKVFMVKPEEPFQPVKEATQL [L112I] | 0.0768 | 0.0483 | 0.0707 | 0.0577 |  | 0.0821 | 0.0784 | 0.0704 | 0.0678 | 0.0784 |  |  | 0.0637 |  | 0.0798 | 0.0631 |  |
| MGESLFKGPRDYNPISSSICHLTNESDGHTTSLYGIGFGPFIIANKHLFRRNNGTLVVQSLHGVFKVKDTTTLQQHLVDGRDMIIIRMPKDFPPFPQKLKFREPQREERICLVTTNFQTKSMSSMVSDTSCTFPSGDGIFWKHWIQTKDGQCGSPLVSTRDGFIVGIHSASNFTNTNNYFTSVPKNFMELLTNQEAQQWVSGWRLNADSVLWGGHKVFMVKPEEPFQPVKEATQL [T44A] | 0.0637 | 0.0598 | 0.0704 | 0.0577 | 0.0717 | 0.0694 | 0.056 | 0.0585 |  | 0.0956 |  | 0.0663 | 0.0616 | 0.0735 | 0.067 | 0.0646 |  |
| MGESLFKGPRDYNPISSSICHLTNESDGHTTSLYGIGFGPFIITNKHLFRRNNGTLVVQSLHGVFKVKDTTTLQQHLVDGRDMIIIRMPKDFPPFPQKLKFREPQREERICLVTTNFQTKSMSSMVSDTSCTFPSGDGIFWKHWIQTKDGQCGSPLVSTRDGFIVGIHSASNFTNTNNYFTSVPKNFMELLTNQEAQQWHSGWRLNADSVLWGGHKVFMVKPEEPFQPVKEATQL [V200H] | 0.057 | 0.0643 | 0.0671 | 0.0651 |  | 0.0711 | 0.0644 | 0.0599 | 0.0522 | 0.0607 |  | 0.0512 | 0.0655 |  | 0.0608 | 0.0623 | 0.0628 |
| MGESLFKGPRDYNPISSSICHLTNESDGHTTSLYGIGFGPFIITNKHLFRRNNGTLVVQSLHGVFKVKDTTTLQQHLVDGRDMIIIRMPKDFPPFPQKLKFREPQREERICLVTTNFQTKSMSSMVSDTSCTFPSGDGIFWKHWIQTKDGQCGSPLVSTRDGFIVGIHSASNFTNTNNYFTSVPKNFMELLTNQEAQQWPSGWRLNADSVLWGGHKVFMVKPEEPFQPVKEATQL [V200P] | 0.062 | 0.0633 | 0.0693 |  |  | 0.0701 | 0.0693 | 0.0799 | 0.0634 |  |  | 0.025 | 0.085 |  | 0.0559 | 0.0566 |  |
| MGESLFKGPRDYNPISSSICHLTNESDGHTTSLYGIGFGPFIITNKHLFRRNNGTLVVQSLHGVFKVKDTTTLQQHLVDGRDMIIIRMPKDFPPFPQKLKFREPQREERICLVTTNFQTKSMSSMVSDTSCTFPSGDGIFWKHWIQTKDGQCGSPLVSTRDGFIVGIHSASNFTNTNNYFTSVPKNFMELLTNQEAQQWVSGWRLNADSVLWGGHKVFMVKPEEPFQPVKETTQL [A232T] | 0.0561 |  |  | 0.058 | 0.0767 | 0.0844 | 0.0592 |  |  | 0.0601 |  | 0.07 |  |  | 0.0564 |  | 0.0845 |
| MGESLFKGPRDYNPISSSICHLTNESDGHTTSLYGIGFGPFIITNKHLFRRNNGTLVVQSLHGVFKVKDTTTLQQHLVDGRDMIIIRMPKDFPPFPQKLKFREPQREERICLVTTNFQTKSMSSMVSDTSCTFPSGDGIFWKHWIQTKDGQCGSPLVSTRDGFIVGIHSASNFTNTNNYFTSVPKNFMELLTNQEAQQWVSGWRLNADSVLWGGHKVFMVKPEEPFQPVKEMTQL [A232M] | 0.0836 |  | 0.0542 | 0.0615 |  | 0.105 | 0.0904 | 0.0513 |  | 0.094 |  | 0.0626 |  |  | 0.0636 |  |  |
